Reference: PubChem BioAssay AID588591 (National Center for Advancing Translational Sciences (NCATS), 2011)
The campaign covered roughly 390,000 compounds. About 4,700 (1.2%) were called active. About 4% were inconclusive and are not listed. The call rests on the fitted dose curve; in most records, active means well fitted inhibition curve with a large enough effect; inconclusive means small, poorly fitted or top-dose-only effect, or another doubt; inactive means no such curve, though single readings can be large or run the other way. This is a selection; strong and weak results do not stand in their true shares.

Target: DNA polymerase eta (Homo sapiens) (UniProt Q9Y253)
Chain of UniProt Q9Y253 (Q9Y253 whole entry, looked up): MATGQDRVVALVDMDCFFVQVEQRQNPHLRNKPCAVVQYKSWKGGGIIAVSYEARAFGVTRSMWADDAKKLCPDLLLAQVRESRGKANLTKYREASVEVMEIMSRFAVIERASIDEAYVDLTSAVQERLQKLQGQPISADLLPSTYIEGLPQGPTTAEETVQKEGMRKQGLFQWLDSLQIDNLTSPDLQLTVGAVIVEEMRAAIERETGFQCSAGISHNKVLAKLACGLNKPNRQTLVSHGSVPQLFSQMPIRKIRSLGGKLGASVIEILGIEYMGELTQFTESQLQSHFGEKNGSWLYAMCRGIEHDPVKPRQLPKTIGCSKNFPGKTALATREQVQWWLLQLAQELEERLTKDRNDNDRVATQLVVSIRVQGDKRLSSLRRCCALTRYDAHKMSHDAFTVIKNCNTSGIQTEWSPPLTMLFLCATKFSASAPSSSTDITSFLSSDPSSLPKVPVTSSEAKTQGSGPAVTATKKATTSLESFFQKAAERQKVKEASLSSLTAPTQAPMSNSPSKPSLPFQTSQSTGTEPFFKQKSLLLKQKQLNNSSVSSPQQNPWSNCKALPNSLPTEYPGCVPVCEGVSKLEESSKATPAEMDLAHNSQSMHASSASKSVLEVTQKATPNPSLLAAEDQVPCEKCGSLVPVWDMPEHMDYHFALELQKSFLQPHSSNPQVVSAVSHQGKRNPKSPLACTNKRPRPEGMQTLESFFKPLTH
Experiment: qHTS for Inhibitors of Polymerase Eta
Conditions: recombinant Pol eta, fluorescent DNA replication assay; series mostly up to 114 µM; activity change, negative = inhibition: at the top concentration
How it was run: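 Pol eta (10 nM) was preincubated with compounds for 15 min at room temperature, after which fluorescent replication substrate (50 nM final) was added to start the reaction. Fluorescence was read kinetically at 0 and 10 min.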
On the % scale 0 is the no-effect control and ±100 the full control effect; potency means the concentration at half of the fitted maximal effect.

SMILES	activity change, negative = inhibition	Potency
CC(CCc1ccccc1)NCC#N (stereo unspecified)	inactive: 34.8%	
C=CC[C@@H](CC(=O)N(CCO)Cc1ccccc1)C(=O)N[C@@H](COC(=O)[C@@H](CC=C)CC(=O)OC(C)(C)C)Cc1c[nH]c2ccccc12	inactive: -21.2%	
COc1ccccc1NC(=O)Cn1c(O)c(N=NC(=O)c2ccccc2O)c2ccccc21		active: 50.1 µM
CCOC(=O)[C@@H]1[C@H]2COc3ccccc3[C@H]2N2C(=O)N(c3ccc(C(F)(F)F)cc3)C(=O)[C@]12C	inactive: -24.2%	
C=CCC[C@@H](Cc1ccc(F)cc1)C(=O)OC[C@@H](C)NC(=O)[C@H](CC=C)CC(=O)N(CCO)Cc1ccccc1	inactive: -23.1%	
O=C(COC(=O)Cc1cccc(C(F)(F)F)c1)NCc1ccco1		active: 5.01 µM
Oc1ccc(/C=N/NC2=NCCCCC2)cc1	inactive: 15.4%	
COc1cc2nc(Nc3cccc(F)c3)nc(N)c2cc1OC	inactive: -15%	
COc1ccc(OC)c(N2C(=O)[C@@H]3C(c4ccccc4Cl)=NO[C@@H]3C2=O)c1		active: 1.26 µM
CCOc1ccccc1/C=c1\sc2nc(-c3ccco3)nn2c1=O		active: 7.94 µM
O=C(NCCc1ccc(F)cc1)c1ccc(Cl)c(S(=O)(=O)N2CCOCC2)c1		active: 44.7 µM
COc1cc(/C=C2\SC(=O)NC2=O)ccc1Oc1ccc([N+](=O)[O-])cc1[N+](=O)[O-]		active: 50.1 µM
COc1ccc(/C=C/C(=O)NC(=S)Nc2ccc(Br)cn2)cc1	inactive: 16.7%	
Cc1ccc(C(=O)Nc2cccc(C(F)(F)F)c2)cc1NC(=O)c1nccnc1N	inactive: -7.63%	
CCSc1nnc(NC(=O)C2CC=CCC2C(=O)O)s1 (stereo unspecified)		active: 20 µM
Cc1cc(C(=O)NCc2cc(C(=O)O)co2)co1		active: 20 µM
O=C1C=C(Nc2ccccc2O)c2ccccc2C1=O		active: 25.1 µM
Nc1ccc2ccc(O)cc2c1		active: 50.1 µM
O=C(NC(=S)Nc1ccc(Cl)c(C(=O)O)c1)c1cccc(COc2ccccc2)c1		active: 79.4 µM
Cc1[nH]c2ccccc2c1C(=O)/C=C\c1ccccc1Cl	inactive: -9.78%	
COc1ccc(CCN2CC(C(=O)NCCc3ccc(C)cc3)CC2=O)cc1OC (stereo unspecified)	inactive: -0.952%	
CCc1cc(C(=O)Nc2nnc(C3CC3)s2)sc1C		active: 50.1 µM
O=C1O/C(=C\c2ccccc2)c2ccccc21	inactive: 2.41%	

SMILES	activity change, negative = inhibition	Potency
O=C(C1CCCN(S(=O)(=O)c2cccc3nsnc23)C1)N1CCN(c2ccccn2)CC1 (stereo unspecified)	inactive: -10.7%	
CC(=O)C[C@@H](O)CC(=O)[C@@H]1OC(=O)[C@H](C)C/C=C\Cc2ccccc21	inactive: -0.0966%	
Cc1ccc(C(=O)Nc2ccc(O)c(C(=O)O)c2)o1		active: 14.1 µM
C=CCc1cccc2cc(C(=O)Nc3ccc(CC(=O)O)cc3)c(=O)oc12		active: 35.5 µM
CC(=O)Nc1cc(NC(C)=O)cc(-c2nc3ccccc3[nH]2)c1		inactive
COc1ccc(Cn2c(=O)[nH]c3cc(C(=O)NC4CCCC4)ccc3c2=O)cc1	inactive: 35.3%	
Cc1cc(=O)c2cc(Br)ccc2n1CC(=O)NCc1ccccc1	inactive: 16.9%	
CSc1cccc(NC(=O)CN(c2ccccc2)S(=O)(=O)N(C)C)c1	inactive: -5.83%	
COc1ccc(CCNC(=O)c2nnc(Cc3ccc(Cl)cc3)o2)cc1OC	inactive: -11.3%	
O=Nc1c(-c2c(O)[nH]c3cc(Br)ccc23)[nH]c2ccccc12	inactive: -17.6%	
COc1ccc(NC(=O)CSc2nnc(-c3cccnc3)n2C)cc1	inactive: 30.1%	
CC(=O)Nc1ccc(S(=O)(=O)N2CCN(CCN3CCOCC3)CC2)cc1Cl	inactive: 18.4%	
CCc1cc(C(=O)N(CC(C)C)c2c(N)n(Cc3ccccc3)c(=O)[nH]c2=O)sc1C	inactive: 15.7%	
COc1ccc(/C=C(\NC(=O)c2ccccc2)C(=O)NC2CCCCC2)cc1	inactive: 25.8%	
CN1CCS/C1=C\C=C1/SC(=S)N(CC(=O)O)C1=O	inactive: -2.13%	
O=C1c2ccccc2C(=O)N1c1ncn[nH]1	inactive: 30.8%	
COC(=O)/C=C1/SC(=NC(=O)c2cccc([N+](=O)[O-])c2)NC1=O	inactive: -15.5%	
COc1ccc(C(CNC(=O)COc2cc(C)c(Cl)c(C)c2)N2CCCCC2)cc1 (stereo unspecified)	inactive: -28.3%	
N#C/C(=C\c1ccc(N2CCCC2)c([N+](=O)[O-])c1)c1nc2ccccc2[nH]1	inactive: 10.6%	
CCOc1ccc(C(=O)N/N=C/c2cc([N+](=O)[O-])cs2)cc1	inactive: 32.6%	
Cc1c(/C(O)=C2\C(=O)C(=O)N(CCCN(C)C)C2c2cccs2)cnn1-c1ccccc1 (stereo unspecified)	inactive: 17.5%	
C=CC[C@@H](CC(=O)N[C@H](CO)Cc1ccccc1)C(=O)N[C@H](COC(=O)[C@@H](CC=C)Cc1ccc(F)cc1)C(C)(C)C	inactive: -21.1%	
Nc1cc(-c2nn[nH]n2)ccc1F		active: 11.2 µM
